In article PMC5062570 (Nature Communications, 2016):

Tests used:
[1] = target: PF-7802-labelled proteins in ARPE-19 cells (Homo sapiens, UniProt P0DMV9); settings: for Median SILAC Ratio (Heavy/Light): protein HSPA1B Heat shock 70 kDa protein 1A/1B (P08107), one column per replicate
[2] = target: PF-7802-labelled proteins in ARPE-19 cells (Homo sapiens, UniProt O75390); settings: protein CS Citrate synthase, mitochondrial (O75390)
[3] = target: PF-7802-labelled proteins in ARPE-19 cells (Homo sapiens, UniProt P02786)
[4] = target: PF-7802-labelled proteins in ARPE-19 cells (Homo sapiens, UniProt P48047); settings: protein ATP5O ATP synthase subunit O, mitochondrial (P48047)
[5] = target: PF-7802-labelled proteins in ARPE-19 cells (Homo sapiens, UniProt P52907); settings: protein CAPZA1 F-actin-capping protein subunit alpha-1 (P52907)
[6] = target: PF-7802-labelled proteins in ARPE-19 cells (Homo sapiens, UniProt Q15233); settings: protein NONO Non-POU domain-containing octamer-binding protein (Q15233); replicates in separate columns
[7] = target: PF-7802-labelled proteins in ARPE-19 cells (Homo sapiens, UniProt Q07065); settings: protein CKAP4 Cytoskeleton-associated protein 4 (Q07065)
[8] = target: PF-7802-labelled proteins in ARPE-19 cells (Homo sapiens, UniProt Q14103); settings: protein HNRNPD Heterogeneous nuclear ribonucleoprotein D0 (Q14103); one column per replicate
[9] = target: PF-7802-labelled proteins in ARPE-19 cells (Homo sapiens, UniProt P49257); settings: protein LMAN1 Protein ERGIC-53 (P49257); replicates in separate columns
[10] = target: PF-7802-labelled proteins in ARPE-19 cells (Homo sapiens, UniProt Q12797); settings: protein ASPH Aspartyl/asparaginyl beta-hydroxylase (Q12797)
[11] = target: PF-7802-labelled proteins in ARPE-19 cells (Homo sapiens, UniProt P46776)
[12] = target: PF-7802-labelled proteins in ARPE-19 cells (Homo sapiens, UniProt Q9P0K7); settings: protein RAI14 Ankycorbin, Q9P0K7
[13] = target: PF-7802-labelled proteins in ARPE-19 cells (Homo sapiens, UniProt P26599); settings: for Median SILAC Ratio (Heavy/Light): protein PTBP1 Polypyrimidine tract-binding protein 1, P26599
[14] = target: PF-7802-labelled proteins in ARPE-19 cells (Homo sapiens, UniProt Q15393); settings: SF3B3 Splicing factor 3B subunit 3 (Q15393)
[15] = target: PF-7802-labelled proteins in ARPE-19 cells (Homo sapiens, UniProt P49821); settings: protein NDUFV1 NADH dehydrogenase [ubiquinone] flavoprotein 1, mitochondrial (P49821); replicates in separate columns
[16] = target: PF-7802-labelled proteins in ARPE-19 cells (Homo sapiens, UniProt P11279); settings: protein LAMP1 Lysosome-associated membrane glycoprotein 1 (P11279); replicates in separate columns
[17] = target: PF-7802-labelled proteins in ARPE-19 cells (Homo sapiens, UniProt Q9NYU2); settings: UGGT1 UDP-glucose:glycoprotein glucosyltransferase 1 (Q9NYU2)
[18] = target: PF-7802-labelled proteins in ARPE-19 cells (Homo sapiens, UniProt P54886); settings: protein ALDH18A1 Delta-1-pyrroline-5-carboxylate synthase (P54886)
[19] = target: PF-7802-labelled proteins in ARPE-19 cells (Homo sapiens, UniProt P10321); settings: protein HLA-C HLA class I histocompatibility antigen, Cw-7 alpha chain (P10321); one column per replicate
[20] = target: T1, PF-7802-labelled proteins in ARPE-19 cells (Homo sapiens, UniProt P50991); settings: for Median SILAC Ratio (Heavy/Light): protein CCT4 T-complex protein 1 subunit delta (P50991)
T1 sequence (P50991 1-539): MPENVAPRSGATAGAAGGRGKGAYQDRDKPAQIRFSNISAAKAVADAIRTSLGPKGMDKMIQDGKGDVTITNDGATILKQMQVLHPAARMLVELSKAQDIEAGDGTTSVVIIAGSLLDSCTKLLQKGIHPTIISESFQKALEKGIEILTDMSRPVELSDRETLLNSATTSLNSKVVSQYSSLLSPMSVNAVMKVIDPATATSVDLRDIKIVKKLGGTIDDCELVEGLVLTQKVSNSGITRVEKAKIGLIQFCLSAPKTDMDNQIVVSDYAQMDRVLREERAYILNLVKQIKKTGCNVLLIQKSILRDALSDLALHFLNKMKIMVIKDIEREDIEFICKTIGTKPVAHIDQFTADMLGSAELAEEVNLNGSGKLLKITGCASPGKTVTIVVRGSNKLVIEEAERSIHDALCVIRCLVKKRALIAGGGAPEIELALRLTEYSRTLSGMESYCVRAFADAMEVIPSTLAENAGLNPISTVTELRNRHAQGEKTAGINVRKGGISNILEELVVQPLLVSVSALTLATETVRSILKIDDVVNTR

[21] = target: PF-7802-labelled proteins in ARPE-19 cells (Homo sapiens, UniProt Q16850); settings: protein CYP51A1 Lanosterol 14-alpha demethylase (Q16850)
[22] = target: PF-7802-labelled proteins in ARPE-19 cells (Homo sapiens, UniProt O60506); settings: SYNCRIP Heterogeneous nuclear ribonucleoprotein Q (O60506)
[23] = target: PF-7802-labelled proteins in ARPE-19 cells (Homo sapiens, UniProt Q16181); settings: SEPT7 Septin-7 (Q16181)

UniProt P0DMV9, sequence (P0DMV9 whole entry): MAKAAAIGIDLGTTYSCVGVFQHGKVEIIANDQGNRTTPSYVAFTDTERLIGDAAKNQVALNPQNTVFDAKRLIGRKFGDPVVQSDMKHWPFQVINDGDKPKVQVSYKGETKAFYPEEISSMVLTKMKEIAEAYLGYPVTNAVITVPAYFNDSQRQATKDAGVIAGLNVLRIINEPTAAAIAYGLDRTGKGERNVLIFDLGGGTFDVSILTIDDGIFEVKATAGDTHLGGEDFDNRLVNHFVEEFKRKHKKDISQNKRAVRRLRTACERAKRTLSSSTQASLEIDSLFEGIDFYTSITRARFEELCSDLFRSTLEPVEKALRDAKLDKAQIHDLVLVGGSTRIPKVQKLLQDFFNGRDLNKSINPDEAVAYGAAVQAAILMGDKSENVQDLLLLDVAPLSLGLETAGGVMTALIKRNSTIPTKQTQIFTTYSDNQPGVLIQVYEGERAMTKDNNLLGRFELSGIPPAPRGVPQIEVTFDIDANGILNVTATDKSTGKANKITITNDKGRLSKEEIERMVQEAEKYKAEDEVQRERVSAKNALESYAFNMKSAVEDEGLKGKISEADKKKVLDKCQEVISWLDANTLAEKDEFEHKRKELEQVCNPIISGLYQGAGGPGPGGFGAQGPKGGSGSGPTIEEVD
UniProt Q15233, sequence (Q15233 whole entry, the tested form may be a part): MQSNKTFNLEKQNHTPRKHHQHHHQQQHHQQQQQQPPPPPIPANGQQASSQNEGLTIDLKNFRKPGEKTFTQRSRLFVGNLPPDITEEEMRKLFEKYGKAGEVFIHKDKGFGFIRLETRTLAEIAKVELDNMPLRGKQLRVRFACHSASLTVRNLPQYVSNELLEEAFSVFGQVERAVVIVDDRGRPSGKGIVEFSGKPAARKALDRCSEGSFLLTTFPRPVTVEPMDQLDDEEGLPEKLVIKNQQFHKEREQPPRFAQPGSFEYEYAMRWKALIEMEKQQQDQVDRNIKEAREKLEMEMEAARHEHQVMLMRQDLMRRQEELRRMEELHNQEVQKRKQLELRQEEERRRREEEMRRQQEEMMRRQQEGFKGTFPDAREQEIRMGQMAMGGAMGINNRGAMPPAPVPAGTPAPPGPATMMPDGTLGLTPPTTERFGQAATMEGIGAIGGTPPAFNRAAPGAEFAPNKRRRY
UniProt P26599, sequence (P26599 whole entry): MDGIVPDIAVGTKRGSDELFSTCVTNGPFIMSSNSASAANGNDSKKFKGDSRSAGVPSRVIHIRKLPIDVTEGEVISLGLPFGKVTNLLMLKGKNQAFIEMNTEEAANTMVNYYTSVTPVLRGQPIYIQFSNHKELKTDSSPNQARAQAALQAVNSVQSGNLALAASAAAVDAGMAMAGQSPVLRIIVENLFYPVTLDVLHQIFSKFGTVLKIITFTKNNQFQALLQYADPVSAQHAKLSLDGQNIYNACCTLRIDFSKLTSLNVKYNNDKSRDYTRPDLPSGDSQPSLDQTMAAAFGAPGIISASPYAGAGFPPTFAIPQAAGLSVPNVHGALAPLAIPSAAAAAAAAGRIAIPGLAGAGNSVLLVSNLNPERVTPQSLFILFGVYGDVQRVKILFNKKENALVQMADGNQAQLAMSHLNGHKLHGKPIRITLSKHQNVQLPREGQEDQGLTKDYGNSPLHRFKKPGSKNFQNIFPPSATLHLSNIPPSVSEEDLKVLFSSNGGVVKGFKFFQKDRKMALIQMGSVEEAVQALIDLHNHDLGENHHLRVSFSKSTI
UniProt Q14103, sequence (Q14103 whole entry): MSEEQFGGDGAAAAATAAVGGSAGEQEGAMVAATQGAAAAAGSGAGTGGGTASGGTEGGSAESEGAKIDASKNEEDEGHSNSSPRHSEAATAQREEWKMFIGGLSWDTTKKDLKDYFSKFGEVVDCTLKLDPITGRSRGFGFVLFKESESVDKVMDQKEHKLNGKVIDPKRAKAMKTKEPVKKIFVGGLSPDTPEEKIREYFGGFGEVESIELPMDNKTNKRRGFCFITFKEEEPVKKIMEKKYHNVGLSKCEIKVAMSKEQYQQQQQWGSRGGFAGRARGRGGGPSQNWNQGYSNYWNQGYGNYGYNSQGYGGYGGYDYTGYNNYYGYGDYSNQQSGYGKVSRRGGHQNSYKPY
UniProt Q07065, sequence (Q07065 whole entry): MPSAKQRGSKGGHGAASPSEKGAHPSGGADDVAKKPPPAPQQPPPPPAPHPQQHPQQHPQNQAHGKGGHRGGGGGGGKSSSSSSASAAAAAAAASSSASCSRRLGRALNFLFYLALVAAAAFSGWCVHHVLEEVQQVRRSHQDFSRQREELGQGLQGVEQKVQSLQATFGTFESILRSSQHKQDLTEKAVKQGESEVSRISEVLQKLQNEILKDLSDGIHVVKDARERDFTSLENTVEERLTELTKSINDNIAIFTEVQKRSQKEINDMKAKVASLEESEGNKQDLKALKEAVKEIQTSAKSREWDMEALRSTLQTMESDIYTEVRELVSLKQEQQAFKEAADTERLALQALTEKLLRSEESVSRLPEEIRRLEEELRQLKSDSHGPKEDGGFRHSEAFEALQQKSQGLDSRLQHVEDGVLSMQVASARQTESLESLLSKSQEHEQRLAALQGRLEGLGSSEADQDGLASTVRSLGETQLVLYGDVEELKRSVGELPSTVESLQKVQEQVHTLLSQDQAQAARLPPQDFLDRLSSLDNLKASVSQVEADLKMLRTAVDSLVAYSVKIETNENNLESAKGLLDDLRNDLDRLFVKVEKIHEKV
UniProt P02786, sequence (P02786 whole entry): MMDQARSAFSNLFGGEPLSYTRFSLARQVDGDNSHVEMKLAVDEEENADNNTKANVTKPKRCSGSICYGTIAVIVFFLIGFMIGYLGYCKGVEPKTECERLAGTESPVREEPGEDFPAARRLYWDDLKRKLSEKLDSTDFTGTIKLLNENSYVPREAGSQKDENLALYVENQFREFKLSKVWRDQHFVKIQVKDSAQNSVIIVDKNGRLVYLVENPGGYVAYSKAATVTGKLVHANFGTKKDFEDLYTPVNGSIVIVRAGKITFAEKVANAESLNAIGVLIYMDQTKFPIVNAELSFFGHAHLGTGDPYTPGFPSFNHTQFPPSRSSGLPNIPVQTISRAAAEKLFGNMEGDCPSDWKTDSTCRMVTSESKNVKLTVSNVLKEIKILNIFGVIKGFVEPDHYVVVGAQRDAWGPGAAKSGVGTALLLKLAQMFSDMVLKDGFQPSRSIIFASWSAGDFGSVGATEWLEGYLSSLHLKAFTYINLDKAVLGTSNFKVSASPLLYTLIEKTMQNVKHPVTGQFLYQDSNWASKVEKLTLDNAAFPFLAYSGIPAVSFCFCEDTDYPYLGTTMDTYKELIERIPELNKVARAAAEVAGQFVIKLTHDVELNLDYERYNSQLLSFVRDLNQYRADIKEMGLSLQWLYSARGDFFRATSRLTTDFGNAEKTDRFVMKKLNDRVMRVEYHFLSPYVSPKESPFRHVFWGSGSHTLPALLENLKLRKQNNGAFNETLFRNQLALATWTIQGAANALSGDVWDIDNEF
UniProt Q12797, sequence (Q12797 whole entry): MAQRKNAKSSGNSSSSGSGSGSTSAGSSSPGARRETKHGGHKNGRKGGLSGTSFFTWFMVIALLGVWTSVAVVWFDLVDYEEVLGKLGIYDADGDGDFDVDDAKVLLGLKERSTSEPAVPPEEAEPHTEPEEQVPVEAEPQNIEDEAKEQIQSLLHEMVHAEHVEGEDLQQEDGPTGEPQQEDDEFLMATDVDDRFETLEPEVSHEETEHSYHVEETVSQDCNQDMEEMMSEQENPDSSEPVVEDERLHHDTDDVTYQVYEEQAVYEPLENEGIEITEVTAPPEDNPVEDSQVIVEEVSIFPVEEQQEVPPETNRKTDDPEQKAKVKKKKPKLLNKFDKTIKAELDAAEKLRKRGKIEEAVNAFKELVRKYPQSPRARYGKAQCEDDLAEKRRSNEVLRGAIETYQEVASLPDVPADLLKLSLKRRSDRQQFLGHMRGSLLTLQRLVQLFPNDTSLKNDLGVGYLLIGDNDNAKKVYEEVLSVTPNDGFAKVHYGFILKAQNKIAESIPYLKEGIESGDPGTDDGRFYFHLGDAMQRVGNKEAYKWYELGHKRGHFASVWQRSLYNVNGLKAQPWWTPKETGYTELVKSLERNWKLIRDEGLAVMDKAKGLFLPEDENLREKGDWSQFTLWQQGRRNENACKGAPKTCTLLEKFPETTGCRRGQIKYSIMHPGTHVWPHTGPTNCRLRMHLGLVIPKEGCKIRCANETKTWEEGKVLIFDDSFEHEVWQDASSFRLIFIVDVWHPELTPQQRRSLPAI
UniProt O60506, sequence (O60506 whole entry): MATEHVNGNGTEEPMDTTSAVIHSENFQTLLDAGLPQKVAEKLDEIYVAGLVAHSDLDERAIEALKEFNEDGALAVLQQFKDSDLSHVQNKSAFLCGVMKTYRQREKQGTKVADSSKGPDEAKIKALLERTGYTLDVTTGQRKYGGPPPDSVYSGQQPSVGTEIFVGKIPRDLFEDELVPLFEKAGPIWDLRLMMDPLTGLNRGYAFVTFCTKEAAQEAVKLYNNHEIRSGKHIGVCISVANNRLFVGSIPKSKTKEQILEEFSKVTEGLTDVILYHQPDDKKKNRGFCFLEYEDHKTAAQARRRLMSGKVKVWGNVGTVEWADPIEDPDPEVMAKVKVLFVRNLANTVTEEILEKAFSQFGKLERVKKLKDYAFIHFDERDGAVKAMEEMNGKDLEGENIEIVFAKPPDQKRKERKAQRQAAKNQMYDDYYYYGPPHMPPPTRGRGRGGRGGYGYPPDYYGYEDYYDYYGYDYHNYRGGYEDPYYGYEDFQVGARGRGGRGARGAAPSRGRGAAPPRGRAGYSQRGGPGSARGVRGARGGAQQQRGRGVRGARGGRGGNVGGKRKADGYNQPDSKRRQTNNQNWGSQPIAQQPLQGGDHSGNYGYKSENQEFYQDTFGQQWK

Row | SMILES | Median SILAC Ratio (Heavy/Light) [1] | Median SILAC Ratio (Heavy/Light) [2] | Median SILAC Ratio (Heavy/Light) [4] | Median SILAC Ratio (Heavy/Light) [5] | Median SILAC Ratio (Heavy/Light) [6] | Median SILAC Ratio (Heavy/Light) [7] | Median SILAC Ratio (Heavy/Light) [8] | Median SILAC Ratio (Heavy/Light) [9] | Median SILAC Ratio (Heavy/Light) [10] | Median SILAC Ratio (Heavy/Light) [12] | Median SILAC Ratio (Heavy/Light) [13] | Median SILAC Ratio (Heavy/Light) [14] | Median SILAC Ratio (Heavy/Light) [15] | Median SILAC Ratio (Heavy/Light) [16] | Median SILAC Ratio (Heavy/Light) [17] | Median SILAC Ratio (Heavy/Light) [18] | Median SILAC Ratio (Heavy/Light) [19] | Median SILAC Ratio (Heavy/Light) [20] | Median SILAC Ratio (Heavy/Light) [21] | Median SILAC Ratio (Heavy/Light) [22] | further results
1 | CNC1CCN(C(=O)C[C@@H](Cc2ccccc2)C(=O)N[C@@H](CSC)C(=O)N[C@@H](CC2CCCCC2)[C@@H](O)C(=O)OC(C)C)CC1 [CP-108671, reference compound] | 1.387 | 1.054 | 0.9626 | 1.363 | 0.9246 | 1.277 and 0.8671 | 0.7897 | 1.464 | 1.437 | 1.263 | 0.9647 | 0.4208 | 0.8453 | 1.326 | 0.883 | 1.676 | 1.094 | 1.314 | 0.7395 | 1.127 | SILAC ratio (DMSO/CP-108671) ([1]; P08107 HSPA1B Heat shock 70 kDa protein 1A/1B): 0.72; Median SILAC Ratio (Heavy/Light) ([3]; TFRC Transferrin receptor protein 1 (P02786)): 1.623; Median SILAC Ratio (Heavy/Light) ([11]; protein RPL27A 60S ribosomal protein L27a, P46776): 1.352; SILAC ratio (DMSO/CP-108671) ([13]; P26599 PTBP1 Polypyrimidine tract-binding protein 1): 1.04; SILAC ratio (DMSO/CP-108671) ([20]; P50991 CCT4 T-complex protein 1 subunit delta): 0.76; Median SILAC Ratio (Heavy/Light) [23]: 1.343
2 | Cc1cc([C@H]2C[C@H]3[C@@H](C)SC(N)=N[C@@]3(c3ccc(F)cc3F)CO2)on1 [PF-9283] | 1.491 and 2.388 and 2.9976 | 1.116 | 1.211 and 0.9659 | 1.567 and 0.9317 | 1.217 and 0.815 and 1.108 | 1.279 and 0.7219 and 0.7482 | 0.985 and 0.3331 | 1.415 | 1.548 and 0.8167 | 1.413 | 1.288 and 0.7894 | 1.171 | 0.7378 | 1.473 | 0.9773 | 1.64 | 0.1709 | 1.377 | 2.762 | 0.9772 | Median SILAC Ratio (Heavy/Light) [3]: 1.437 and 0.8521; Median SILAC Ratio (Heavy/Light) [11]: 1.443 and 1.762; Median SILAC Ratio (Heavy/Light) [23]: 1.557

Where “and” joins values, the source holds several entries; their conditions need not be identical. Identical values can stand only once. Like-named read-outs stand apart in the source and are kept apart here.
